Source: the supplement of paper PMC12217912
This is one part of the list. Sequences were assembled here from the parent chain. Values near 0.05 are background.

B1: TEV protease; numbered along this chain (parent)
chain: MGESLFKGPRDYNPISSSICHLTNESDGHTTSLYGIGFGPFIITNKHLFRRNNGTLVVQSLHGVFKVKDTTTLQQHLVDGRDMIIIRMPKDFPPFPQKLKFREPQREERICLVTTNFQTKSMSSMVSDTSCTFPSGDGIFWKHWIQTKDGQCGSPLVSTRDGFIVGIHSASNFTNTNNYFTSVPKNFMELLTNQEAQQWVSGWRLNADSVLWGGHKVFMVKPEEPFQPVKEATQL

Variants of: B1
Assay: raw area under fraction-flipped curve 0-4 h after induction (AUC4h, not background-subtracted), DNA-recorder readout of cleavage of the substrate (dimensionless); higher = more cleavage of the substrate by the protease variant
Settings: temperature: 34 °C; time window: 0-4 h after rhamnose induction
Procedure: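 In vivo DNA recorder in E. coli TOP10(DE3) ΔrhaA at 34 °C. Each TEVp single-site mutant (parent TEVp 0) is paired with a single-site variant of the 7-mer TEVs (canonical ENLYFQ|S). The substrate sits between flexible linkers in a Bxb1-sfGFP-TEVs-SsrA fusion, so cleavage stabilises Bxb1 and speeds flipping of a recombination array, read by NGS. The value is the raw area under the fraction-flipped curve over 0-4 h after rhamnose induction (AUC4h), with ≥20 reads per time point. It is not background-subtracted; inactive controls average about 0.047.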
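Also: Bxb1 expression induced with 0.2% (w/v) L-rhamnose at OD600 near 0.5, cultures sampled hourly, flipped fraction per protease–substrate barcode pair counted by paired-end Illumina sequencing.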

| Variant | area with substrate ENLYFAS | area with substrate ENLYFDS | area with substrate ENLYFES | area with substrate ENLYFFS | area with substrate ENLYFGS | area with substrate ENLYFHS | area with substrate ENLYFIS | area with substrate ENLYFKS | area with substrate ENLYFLS | area with substrate ENLYFMS | area with substrate ENLYFNS | area with substrate ENLYFSS | area with substrate ENLYFWS | area with substrate ENLYFYS | area with substrate ENLYFCS | area with substrate ENLYFRS | area with substrate ENLYFTS | area with substrate ENLYFPS | area with substrate ENLYFVS |
| --- | --- | --- | --- | --- | --- | --- | --- | --- | --- | --- | --- | --- | --- | --- | --- | --- | --- | --- | --- |
| Q234C | 0.0638 | 0.0438 | 0.0673 | 0.0641 | 0.0446 | 0.0478 | 0.0435 | 0.0605 | 0.0608 | 0.0733 | 0.0532 | 0.0626 | 0.0499 | 0.0636 |  |  |  |  |  |
| Q234D | 0.0516 | 0.067 | 0.0492 | 0.054 | 0.0805 | 0.0421 | 0.0602 | 0.0583 |  | 0.0762 | 0.0638 | 0.0539 | 0.0226 | 0.0711 | 0.0689 | 0.0722 | 0.0458 |  |  |
| M83Q | 0.0568 |  | 0.0648 |  |  | 0.0681 | 0.0653 | 0.0544 |  |  | 0.0564 | 0.0163 | 0.0483 |  | 0.0658 | 0.0658 | 0.0471 | 0.0601 |  |
| L235A | 0.0606 | 0.0385 |  | 0.0746 | 0.0506 | 0.0812 | 0.0654 | 0.0663 | 0.0643 | 0.0655 |  |  | 0.0455 |  | 0.0512 | 0.0662 | 0.0947 | 0.0677 | 0.0659 |
| D149H | 0.0609 |  | 0.0532 | 0.0748 |  |  | 0.0697 |  |  |  |  | 0.0649 | 0.054 | 0.0545 |  |  | 0.0388 | 0.0665 |  |
| L33E | 0.0689 | 0.0514 | 0.0585 | 0.0669 |  | 0.0484 | 0.0535 |  |  | 0.0585 |  | 0.0635 |  | 0.0514 | 0.0495 | 0.0544 | 0.0635 | 0.0584 |  |
| K216W | 0.0525 |  |  | 0.0595 | 0.0507 | 0.0562 | 0.046 | 0.0748 |  | 0.0708 | 0.0774 | 0.0602 | 0.0682 |  | 0.0745 | 0.0441 | 0.073 |  | 0.0576 |
| I164S | 0.059 |  | 0.0524 | 0.0534 | 0.0497 | 0.0594 | 0.0538 | 0.0552 | 0.0485 | 0.059 | 0.0475 | 0.0473 | 0.0636 | 0.0777 | 0.0356 |  | 0.0576 |  | 0.0573 |
| G28V | 0.0558 | 0.058 |  | 0.0633 |  | 0.041 | 0.0608 |  |  | 0.0686 | 0.0539 | 0.0532 |  |  | 0.0513 | 0.0534 | 0.0738 | 0.0629 | 0.0606 |
| Y179I | 0.0585 | 0.059 | 0.063 | 0.0722 |  | 0.0495 | 0.0528 | 0.0694 |  |  |  |  | 0.0536 |  |  |  | 0.0444 |  | 0.0567 |
| Y179V | 0.0685 | 0.0615 |  |  | 0.0613 | 0.0607 | 0.059 | 0.105 |  | 0.0426 |  | 0.0582 | 0.0408 | 0.0509 | 0.0762 | 0.0592 |  |  |  |
| N193E | 0.0497 |  | 0.0756 | 0.0785 | 0.0265 |  | 0.0722 | 0.0712 |  |  |  | 0.0673 |  |  | 0.0464 |  | 0.0546 | 0.0445 | 0.0518 |
| V229P | 0.0433 | 0.067 | 0.083 | 0.0603 |  | 0.0645 | 0.0552 | 0.0589 | 0.0463 | 0.0807 | 0.0428 | 0.0548 | 0.0556 | 0.049 |  | 0.0453 | 0.0613 | 0.0612 | 0.0584 |
| S182G | 0.0649 |  |  | 0.0366 | 0.0632 |  | 0.0563 |  |  | 0.0649 |  |  | 0.0583 | 0.0467 | 0.0575 | 0.0758 |  |  |  |
